{"source": "PubChem BioAssay AID1508623", "about": "(National Center for Advancing Translational Sciences (NCATS), 2021)", "note": "About 450 (0.94%) of roughly 48,000 compounds were called active. Inconclusive results, whose numbers are uncertain, are shown with a selection of clear calls. The call rests on the fitted dose curve; in most records, active means well fitted inhibition curve with a large enough effect; inconclusive means small, poorly fitted or top-dose-only effect; inactive means no such curve, though single readings can be large or run the other way. A potency beside an inconclusive call is a rough fit, not a confirmed value. Potency means the concentration at half of the fitted maximal effect; tags describe the fitted curve by direction and shape.", "data": [{"test": "Primary qHTS for Identification of Small Molecule Inhibitors of Huntingtin Promoter Activity; further: nearly all actives have a fitted effect of over 50% in size", "conditions": "HEK293 HTT promoter firefly luciferase reporter (activity 0% = vehicle and -100% = no light), 24 h; activity change, negative = inhibition: at 57.5 µM (top of the series)", "outline": "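HEK293 cells carrying firefly luciferase reporters were seeded at 2,500 per well in Opti-MEM and cultured for 24 h. They were then treated with compounds at up to 57.5 uM final for 24 h at 37 degrees C before Dual-Glo luminescence readout.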", "values": [{"compound": "O=C(Nc1ccccc1)C1CCN(S(=O)(=O)c2ccc3c(c2)CCCN3C(=O)C2CCC2)CC1", "Potency": "inconclusive: 22.4 µM [inhibitor, partial curve, poor fit]"}, {"compound": "COc1ccc(Cn2c(CCC(=O)Nc3cc(C)cc(C)c3)nc3cccnc32)cc1", "Potency": "inconclusive: 35.5 µM [inhibitor, partial curve, poor fit]"}, {"compound": "CCOc1cc(CNC(=O)CSc2n[nH]c(-c3ccccc3)n2)cc(OCC)c1OCC", "activity change, negative = inhibition": "inactive: -29.3%"}, {"compound": "Cc1ccccc1CNC(=O)c1ccc2[nH]c(C)c(C)c2c1", "activity change, negative = inhibition": "inactive: 2.64%"}, {"compound": "Cc1cc(C)cc(Nc2cc(C)nc3nc(-c4ccco4)nn23)c1", "Potency": "inconclusive: 28.2 µM [inhibitor, single point]"}, {"compound": "Cc1ccc(Cl)cc1NC(=O)Cn1ncc2c(C)n(Cc3ccccc3F)c(C)c2c1=O", "Potency": "inconclusive: 31.6 µM [inhibitor, partial curve, poor fit]"}, {"compound": "COc1ccc(-c2nc(-c3ccccc3)c(-c3ccc(F)cc3)[nH]2)c(OC)c1C", "Potency": "inconclusive: 20 µM [inhibitor, partial curve, poor fit]"}, {"compound": "O=S(=O)(NCCc1csc2nc(-c3ccc(F)cc3)nn12)c1ccc(Oc2ccccc2)cc1", "Potency": "inconclusive: 28.2 µM [inhibitor, partial curve, poor fit]"}, {"compound": "COc1cccc(CNCCSc2nnnn2C)c1OCc1ccc(F)cc1", "activity change, negative = inhibition": "inactive: -7.18%"}, {"compound": "CCOC(=O)c1[nH]c(C)c(CCC(=O)Nc2ccc(Br)c(C)c2)c1C", "Potency": "inconclusive: 39.8 µM [inhibitor, single point]"}, {"compound": "CCCCCc1nn2cc(-c3ccccc3)nc2s1", "activity change, negative = inhibition": "inactive: 23.3%"}, {"compound": "Cn1nnnc1SCCCNCc1cc(Cl)ccc1OCc1ccccc1F", "Potency": "inconclusive: 15.8 µM [inhibitor, partial curve]"}, {"compound": "Cc1cccc(CNC(=O)C2CCN(S(=O)(=O)c3ccc4c(c3)CCCN4C(=O)C3CCC3)CC2)c1", "Potency": "inconclusive: 12.6 µM [inhibitor, partial curve, poor fit]"}, {"compound": "Cc1ccc(C2C=C(c3ccc(Cl)cc3)Nc3nc(NC(=O)c4ccco4)nn32)cc1", "note": "(centres undefined)", "Potency": "inconclusive: 39.8 µM [inhibitor, partial curve, poor fit]"}, {"compound": "COc1cc(Nc2ncc3c(n2)CCN(Cc2cc(F)cc(F)c2)C3)cc(OC)c1", "Potency": "inconclusive: 14.1 µM [inhibitor, partial curve]"}, {"compound": "O=C(Nc1ccc(F)cc1F)N1CCN(c2ccc(Cl)c(Cl)c2)CC1", "Potency": "inconclusive: 28.2 µM [inhibitor, single point]"}, {"compound": "Cn1nc(-c2ccc(N3CCCCC3)c(NC(=O)c3ccc(Cl)cc3)c2)c2ccccc2c1=O", "activity change, negative = inhibition": "inactive: -8.88%"}, {"compound": "CN(C)CCNC(=O)c1ccc(Cn2c(=O)c3cccn3c3cccnc32)cc1", "activity change, negative = inhibition": "inactive: -5.9%"}, {"compound": "Cc1cccc(CNC(=O)c2ccc(NC(=O)N3CCSc4ncccc43)cc2)c1", "Potency": "inconclusive: 7.94 µM [inhibitor, full curve, poor fit]"}, {"compound": "Cc1cccc(NC(=O)c2oc3ccc(S(=O)(=O)N4CCC5(CC4)OCCO5)cc3c2C)c1C", "Potency": "inconclusive: 28.2 µM [inhibitor, single point]"}, {"compound": "O=C(Cn1c(=O)n(Cc2nc(-c3ccccc3)no2)c(=O)c2cc3c(cc21)OCO3)Nc1cccc(C(F)(F)F)c1", "Potency": "inconclusive: 39.8 µM [inhibitor, single point]"}, {"compound": "CCOC(=O)c1c(C)[nH]c(C)c1S(=O)(=O)N(C)CC(=O)Nc1cccc(C(F)(F)F)c1", "Potency": "inconclusive: 39.8 µM [inhibitor, single point]"}, {"compound": "Cc1cccc(C(=O)Nc2nc(-c3nnn(-c4cc(C)ccc4C)c3C)ns2)c1", "Potency": "inconclusive: 12.6 µM [inhibitor, partial curve, poor fit]"}, {"compound": "COc1cccc(NC(CNS(=O)(=O)c2ccc(C)cc2)c2ccccc2)c1", "note": "(centres undefined)", "Potency": "inconclusive: 25.1 µM [inhibitor, single point]"}, {"compound": "CCN1C(=O)c2ccccc2Sc2ccc(NC(=O)c3ccc(C)c(F)c3)cc21", "Potency": "inconclusive: 25.1 µM [inhibitor, partial curve, poor fit]"}, {"compound": "Cc1cc(-c2ccc(C)c(S(=O)(=O)NCc3ccc(Cl)cc3)c2)on1", "Potency": "inconclusive: 35.5 µM [inhibitor, single point]"}, {"compound": "COc1cc(OC)cc(C(=O)Nc2ccc3nc(N4CCC(C)CC4)cc(C)c3c2)c1", "Potency": "inconclusive: 28.2 µM [inhibitor, single point]"}, {"compound": "COc1ccc(N2CCN(C(c3ccccc3)c3nnc(-c4ccccc4Cl)o3)CC2)cc1", "note": "(centres undefined)", "Potency": "inconclusive: 22.4 µM [inhibitor, partial curve]"}, {"compound": "CCc1ccccc1N1CC(c2nc3ccccc3n2Cc2cccc(C)c2)CC1=O", "note": "(centres undefined)", "Potency": "inconclusive: 39.8 µM [inhibitor, single point]"}, {"compound": "O=C(Nc1nc2nc(-c3ccccc3)cc(=O)n2[nH]1)c1ccc(F)cc1", "activity change, negative = inhibition": "inactive: -5.23%"}, {"compound": "CCOc1ccc(S(=O)(=O)NCCc2sc(-c3ccc(C)cc3)nc2C)cc1", "Potency": "inconclusive: 39.8 µM [inhibitor, single point]"}, {"compound": "COc1cccc(CNC(=O)Cn2ccc3cc(S(=O)(=O)N4CCCC4)ccc32)c1", "Potency": "inconclusive: 25.1 µM [inhibitor, single point]"}, {"compound": "Cc1ccccc1C(=O)Nc1nnc(SCc2cc(=O)c3c(C)ccc(C)c3[nH]2)s1", "Potency": "inconclusive: 3.16 µM [inhibitor, partial curve, poor fit]"}, {"compound": "CNC(=O)c1cc2n(n1)CCCN(Cc1ccc(F)cc1)C2=O", "Potency": "inconclusive: 15.8 µM [inhibitor, partial curve, poor fit]"}, {"compound": "CSc1ccc(CCNC(=O)c2cc3n(n2)CCCN(Cc2ccc(C)cc2)C3=O)cc1", "Potency": "inconclusive: 22.4 µM [inhibitor, partial curve, poor fit]"}, {"compound": "CC(C)c1ccc(NS(=O)(=O)c2ccc3[nH]c(=O)ccc3c2)cc1", "Potency": "inconclusive: 15.8 µM [inhibitor, partial curve]"}, {"compound": "CCOc1ccc(S(=O)(=O)Nc2ccc3c(c2)c(C(C)=O)c(C)n3S(=O)(=O)c2ccc(OCC)cc2)cc1", "Potency": "inconclusive: 17.8 µM [inhibitor, partial curve, poor fit]"}, {"compound": "O=C(NCc1ccc(Cl)cc1)C(=O)NCC(c1ccco1)S(=O)(=O)c1cccs1", "note": "(centres undefined)", "Potency": "inconclusive: 39.8 µM [inhibitor, single point]"}, {"compound": "O=C(NCC1(c2ccccc2)CCCC1)C(=O)Nc1cccc(C(F)(F)F)c1", "activity change, negative = inhibition": "inactive: -3.56%"}, {"compound": "COc1ccc2nc(NS(=O)(=O)c3ccc(C)cc3)c(Nc3cc(Cl)ccc3OC)nc2c1", "Potency": "inconclusive: 25.1 µM [inhibitor, partial curve, poor fit]"}, {"compound": "COc1ccc(-c2cc(C(=O)N3CCN(c4ccccc4OC)CC3)c3cc(C(C)C)ccc3n2)cc1", "Potency": "inconclusive: 31.6 µM [inhibitor, partial curve, poor fit]"}, {"compound": "Cc1noc(/C=C/N(C)C)c1S(=O)(=O)N1CCCC(C(=O)Nc2cccc(F)c2)C1", "note": "(centres undefined)", "Potency": "inconclusive: 20 µM [inhibitor, partial curve, poor fit]"}, {"compound": "Cc1ccc(CNC(=O)c2cn(C)c3ccc(S(=O)(=O)N(C)C4CCCCC4)cc3c2=O)cc1", "activity change, negative = inhibition": "inactive: -11.7% [at 11.5 µM]"}, {"compound": "Cc1ccc(CNC(=O)c2nc(SCc3cccc(C)c3)ncc2Cl)cc1", "Potency": "inconclusive: 10 µM [inhibitor, single point]"}, {"compound": "Cc1cc(C)cc(C(=O)Nc2cc(C(F)(F)F)ccc2N2CCN(c3ccccc3)CC2)c1", "activity change, negative = inhibition": "inactive: -1.25%"}, {"compound": "O=C(c1ccccc1)N1CCc2cc(CNS(=O)(=O)c3ccccc3Cl)ccc21", "Potency": "inconclusive: 25.1 µM [inhibitor, single point]"}, {"compound": "Cc1cccc(N(CC(=O)NC(C)c2ccccc2)S(=O)(=O)c2ccccc2)c1C", "note": "(centres undefined)", "Potency": "inconclusive: 39.8 µM [inhibitor, partial curve, poor fit]"}, {"compound": "O=C(NCCc1ccc(Cl)cc1)c1ccc2nc(Cc3ccccc3)oc2c1", "Potency": "inconclusive: 15.8 µM [inhibitor, partial curve, poor fit]"}, {"compound": "COc1ccc2c(Sc3ccccc3)c(C(=O)NCCN(C)C)[nH]c2c1", "Potency": "inconclusive: 39.8 µM [inhibitor, partial curve, poor fit]"}, {"compound": "Cc1cc2c(cc1S(=O)(=O)Nc1cccc(C(F)(F)F)c1)OCCN2C", "Potency": "inconclusive: 20 µM [inhibitor, partial curve, poor fit]"}, {"compound": "CC(C)Oc1ccc(CNC(=O)Cc2ccc(NC(=O)N3CCSc4ncccc43)cc2)cc1", "Potency": "inconclusive: 25.1 µM [inhibitor, single point]"}, {"compound": "CC(C)(C)C1CCc2c(sc(NC(=O)c3ccccc3F)c2C(=O)N2CCCCC2)C1", "note": "(centres undefined)", "Potency": "inconclusive: 22.4 µM [inhibitor, partial curve, poor fit]"}, {"compound": "CN1CCC[C@@H]1c1cccnc1", "activity change, negative = inhibition": "inactive: 2.3%"}, {"compound": "Cc1ccc2[nH]c(CSc3nnc(NC(=O)COc4ccccc4F)s3)cc(=O)c2c1", "Potency": "inconclusive: 17.8 µM [inhibitor, single point]"}, {"compound": "Cc1cccc(-c2noc(CN(C(=O)c3ccc(C)c(C)c3)C(C)C)n2)c1", "activity change, negative = inhibition": "inactive: -27.1%"}, {"compound": "O=C(CS(=O)Cc1ccco1)NC/C=C\\COc1cc(CN2CCCCC2)ccn1", "note": "(centres undefined)", "activity change, negative = inhibition": "inactive: -3.52%"}, {"compound": "Cc1nc2cc(-c3cccc(F)c3)nn2c(C)c1CCC(=O)N1CCN(c2ccc(F)cc2)CC1", "Potency": "inconclusive: 8.91 µM [inhibitor, partial curve]"}, {"compound": "Cc1cccc(-n2nnnc2S(C)(=O)=O)c1", "Potency": "inconclusive: 35.5 µM [inhibitor, single point]"}, {"compound": "COc1cccc2c1C(=O)c1c(O)c3c(c(O)c1C2=O)C[C@@](O)(C(=O)CO)C[C@H]3O[C@H]1C[C@H](N)[C@H](O)[C@H](C)O1", "Potency": "inconclusive: 0.485 µM [inhibitor, full curve]"}]}]}
